According to the supplement of paper PMC4967469:
The IC50 comes from the fitted curve, where viability falls to half of the control; fits outside the tested doses are given as limits. The AUC spans the tested range (256-fold, ending at the top dose) of the same fit; the more sensitive the line, the further below 1. For some assays here: An inferred top dose was calculated from the reported fits.

What was measured:
Assay in all cases: Viability of human cancer cell lines after 72 h of drug (GDSC screen)
[1] = compound: C=CCNC1=C2C[C@@H](C)C[C@H](OC)[C@H](O)[C@@H](C)/C=C(\C)[C@H](OC(N)=O)[C@@H](OC)/C=C\C=C(/C)C(=O)NC(=CC1=O)C2=O [17-AAG]; conditions: top dose 1 µM
Description: (§1)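 Human cancer cell lines in 384-well plates, medium with 10% serum, drug for 72 h over a 256-fold dose range (nine 2-fold or five 4-fold steps up to the top dose). Adherent lines were fixed and stained with the nucleic acid dye Syto60, suspension lines read with resazurin; signal relative to control wells, capped at 0 and 100%. One two-parameter sigmoid per drug and line, fitted in a mixed model over all curves with the slope shared within a line.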

[2] = compound: CCc1cc(-c2n[nH]c(C)c2-c2ccc3c(c2)OCCO3)c(O)cc1O [CCT018159]; conditions: top dose 10 µM; top dose inferred
Description: as §1

[3] = compound: CN(C)Cc1cccc(N=C(c2ccccc2)c2c(O)[nH]c3cc(C(=O)N(C)C)ccc23)c1 [BIX02189]; conditions: top dose 20 µM; top dose inferred
Description: as §1

[4] = compound: COC(=O)CNC(=O)C(=O)OC [Dimethyloxalylglycine]; conditions: top dose 4000 µM; top dose inferred
Description: as §1

[5] = compound: COc1cccc2cc(-c3nc([C@H]4CC[C@H](C(=O)O)CC4)n4ncnc(N)c34)[nH]c12 [OSI-027]; conditions: top dose 20 µM
Description: as §1

[6] = compound: CS(=O)(=O)c1ccc(C(=O)Nc2ccc(Cl)c(-c3ccccn3)c2)c(Cl)c1 [Vismodegib]; conditions: top dose 10 µM; top dose inferred
Description: as §1

[7] = compound: Cc1cnc(Nc2ccc(F)cc2Cl)nc1-c1c[nH]c(C(=O)N[C@H](CO)c2cccc(Cl)c2)c1 [VX-11e]; conditions: top dose 5.12 µM; top dose inferred
Description: as §1

[8] = compound: Cc1cnc(Nc2ccc(OCCN3CCCC3)cc2)nc1Nc1cccc(S(=O)(=O)NC(C)(C)C)c1 [TG101348]; conditions: top dose 10.24 µM
Description: as §1

[9] = compound: O=C(c1ccc(C(=O)N2CCC(N3CCCC3)CC2)c(Nc2ccccc2)c1)N1CCC(N2CCCC2)CC1 [UNC1215]; conditions: top dose 1 µM; top dose inferred
Description: as §1

Cell Line | AUC [1] | IC50 [1] [µM] | AUC [2] | IC50 [2] [µM] | AUC [3] | IC50 [3] [µM] | AUC [4] | IC50 [4] [µM] | AUC [5] | IC50 [5] [µM] | AUC [6] | IC50 [6] [µM] | AUC [7] | IC50 [7] [µM] | AUC [8] | IC50 [8] [µM] | AUC [9] | IC50 [9] [µM]
CFPAC-1 (pancreas, adherent) | 0.744 | 0.352 | 0.868 | > 10 | 0.97 | > 20 | 0.265 | 47.8 | 0.59 | 2.3 | 0.97 | > 10 | 0.928 | > 5.12 | 0.837 | 8.33 | 0.981 | > 1
COR-L279 (small cell lung carcinoma, suspension) | 0.988 | > 1 | 0.962 | > 10 | 0.933 | > 20 | 0.835 | 2230 | 0.089 | < 0.0781 | 0.991 | > 10 | 0.991 | > 5.12 | 0.724 | 2.54 | 0.975 | > 1
Ca9-22 (head and neck, adherent) | 0.858 | 0.73 | 0.808 | 4.73 | 0.949 | > 20 | 0.708 | 918 | 0.731 | 5.35 | 0.981 | > 10 | 0.93 | > 5.12 | 0.896 | > 10.2 | 0.987 | > 1
DU-4475 (breast, suspension) | 0.717 | 0.223 | 0.936 | > 10 | 0.979 | > 20 | 0.718 | – | 0.649 | 2.96 | 0.986 | > 10 | 0.285 | 0.0908 | 0.863 | 6.33 | 0.989 | > 1
HCC1143 (breast, adherent) | 0.642 | 0.181 | 0.951 | > 10 | 0.972 | > 20 | 0.902 | > 4000 | 0.731 | 7.54 | 0.948 | > 10 | 0.811 | 4.19 | 0.797 | 7.25 | 0.977 | > 1
HCC2218 (breast, suspension) | 0.67 | 0.211 | 0.856 | > 10 | 0.955 | > 20 | 0.94 | > 4000 | 0.565 | 1.98 | 0.981 | > 10 | 0.972 | > 5.12 | 0.963 | > 10.2 | 0.947 | > 1
HDQ-P1 (breast, adherent) | 0.82 | 0.725 | 0.905 | > 10 | 0.984 | > 20 | 0.628 | 605 | 0.832 | 16.4 | 0.984 | > 10 | 0.984 | > 5.12 | 0.965 | > 10.2 | 0.983 | > 1
HOP-62 (lung adenocarcinoma, adherent) | 0.6 | 0.117 | 0.911 | > 10 | 0.929 | > 20 | 0.429 | 160 | 0.584 | 2.12 | 0.986 | > 10 | 0.972 | > 5.12 | 0.858 | 8.37 | 0.984 | > 1
HT (B-cell lymphoma, suspension) | 0.974 | > 1 | 0.99 | > 10 | 0.959 | > 20 | 0.407 | 142 | 0.591 | 2.17 | 0.988 | > 10 | 0.982 | > 5.12 | 0.876 | 8.75 | 0.982 | > 1
HT-1080 (fibrosarcoma, adherent) | 0.571 | 0.0954 | 0.754 | 3.06 | 0.989 | > 20 | 0.578 | 399 | 0.808 | 9.09 | 0.959 | > 10 | 0.986 | > 5.12 | 0.963 | > 10.2 | 0.98 | > 1
Hs746T (stomach, adherent) | 0.852 | > 1 | 0.887 | > 10 | 0.892 | > 20 | 0.837 | > 4000 | 0.13 | < 0.0781 | 0.967 | > 10 | 0.956 | > 5.12 | 0.783 | 5.99 | 0.977 | > 1
L-540 (Hodgkin lymphoma, suspension) | 0.905 | > 1 | 0.873 | 7.86 | 0.944 | > 20 | 0.505 | 257 | 0.291 | 0.348 | 0.981 | > 10 | 0.982 | > 5.12 | 0.773 | 3.54 | 0.989 | > 1
LN-18 (glioma, adherent) | 0.617 | 0.123 | 0.929 | > 10 | 0.994 | > 20 | 0.699 | 795 | 0.96 | > 20 | 0.994 | > 10 | 0.994 | > 5.12 | 0.994 | > 10.2 | 0.993 | > 1
MDA-MB-231 (breast, adherent) | 0.979 | > 1 | 0.75 | 3.44 | 0.985 | > 20 | 0.552 | 349 | 0.789 | 9.43 | 0.955 | > 10 | 0.985 | > 5.12 | 0.879 | > 10.2 | 0.985 | > 1
